Measured values reported in the antibiotic and cytotoxicity screens of Wong et al. (2023).
The list shows a part of the results.

Assays:
HSkMC = human skeletal muscle cells; assay: cytotoxicity call (relative viability < 0.9); conditions: 10 µM
HepG2 = assay: cytotoxicity call (relative viability < 0.9); conditions: 10 µM
S. aureus RN4220 = assay: growth inhibition call (relative growth <= 0.2); conditions: 50 µM

| SMILES | cytotoxicity call (HSkMC) | cytotoxicity call (HepG2) | growth inhibition call (S. aureus RN4220) |
| --- | --- | --- | --- |
| CN1C(=O)[C@@H]2CN(c3ncccn3)C[C@@H]2C12CCN(S(C)(=O)=O)CC2 | inactive | inactive | inactive |
| C[C@@H]1CCCCO[C@@H](CN(C)S(=O)(=O)c2ccc(F)cc2)[C@H](C)CN([C@@H](C)CO)C(=O)c2cc(NC(=O)c3ccccc3)ccc2O1 | inactive | inactive | inactive |
| CN1C(=O)c2cc(NC(=O)c3ccc(C(F)(F)F)cc3)ccc2OC[C@@H]2O[C@@H](CC(=O)NC3Cc4ccccc4C3)CC[C@@H]21 | inactive | active | inactive |
| C[C@H]1CN([C@@H](C)CO)C(=O)c2cc(NC(=O)C3CCCCC3)ccc2O[C@H]1CN(C)S(=O)(=O)c1cn(C)cn1 | inactive | inactive | inactive |
| Cc1noc(C)c1NC(=O)Nc1ccc2c(c1)C(=O)N([C@H](C)CO)C[C@H](C)[C@@H](CN(C)Cc1ccc(Cl)c(Cl)c1)OCCCC[C@@H](C)O2 | inactive | inactive | inactive |
| C[C@@H]1CN([C@H](C)CO)C(=O)c2cc(NS(=O)(=O)c3cccs3)ccc2O[C@@H]1CN(C)S(=O)(=O)c1cccs1 | inactive | inactive | inactive |
| Cc1noc(C)c1S(=O)(=O)Nc1ccc2c(c1)CC(=O)N([C@@H](C)CO)C[C@@H](C)[C@H](CN(C)S(=O)(=O)c1c(C)noc1C)O2 | inactive | inactive | inactive |
| C[C@H]1CN([C@@H](C)CO)C(=O)Cc2cc(NC(=O)C3CC3)ccc2O[C@H]1CN(C)C(=O)Nc1ccc(F)cc1 | inactive | inactive | inactive |
| N/N=C(\C(=O)O)c1ccccc1N | inactive | inactive | inactive |
